Measurements from the supplement of paper PMC12217912.
This is one part of the list. Sequences were assembled here from the parent chain. Inactive controls read about 0.05.

B1: TEV protease; numbered along this chain (parent)
chain: MGESLFKGPRDYNPISSSICHLTNESDGHTTSLYGIGFGPFIITNKHLFRRNNGTLVVQSLHGVFKVKDTTTLQQHLVDGRDMIIIRMPKDFPPFPQKLKFREPQREERICLVTTNFQTKSMSSMVSDTSCTFPSGDGIFWKHWIQTKDGQCGSPLVSTRDGFIVGIHSASNFTNTNNYFTSVPKNFMELLTNQEAQQWVSGWRLNADSVLWGGHKVFMVKPEEPFQPVKEATQL

Variants of: B1
Test: raw area under fraction-flipped curve 0-4 h after induction (AUC4h, not background-subtracted), DNA-recorder readout of cleavage of the substrate (dimensionless); higher = more cleavage of the substrate by the protease variant
Settings: temperature: 34 °C; time window: 0-4 h after rhamnose induction
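Also: Bxb1 expression induced with 0.2% (w/v) L-rhamnose at OD600 near 0.5, cultures sampled hourly, flipped fraction per protease–substrate barcode pair counted by paired-end Illumina sequencing.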

Variant	area with substrate ENLYFQM	area with substrate ENLYFQQ	area with substrate ENLYFQS	area with substrate ENLYFQV	area with substrate ENLYFQW	area with substrate ENLYFQH	area with substrate ENLYFQN	area with substrate ENLYFQY	area with substrate ENLYFQI	area with substrate ENLYFQL
G153S	0.0615	0.0451	0.0624	0.0578	0.0584					
G153L		0.0169	0.0466	0.0551		0.0393	0.0394	0.048		
G153F	0.0621		0.0528		0.0658	0.027	0.0489		0.0563	0.0393
P93K			0.112							0.05
K66Q	0.083		0.102			0.0573	0.0723		0.0433	
W199Y			0.0786	0.0632	0.0672	0.0621			0.0589	
W199S	0.0574		0.0632			0.0695			0.0546	
D91M			0.0979				0.0766			
L99H		0.0716	0.115							
L99I			0.0904						0.0585	
N193C			0.0994		0.0855	0.0612				
N193M			0.0695							
T119C			0.0957	0.0839						
T119R			0.0972						0.0353	
T119W			0.0976							
I84N			0.0606				0.0724		0.064	
T174I			0.0808							
N186R			0.107							
S171I	0.0619		0.0668						0.0486	
L5T			0.117					0.077		0.0325
P228Y			0.0984		0.0593		0.0438	0.0668		0.0596
L190F			0.0854		0.0544					
Q97R			0.0898							0.0605
Q97T			0.106							

Variant	area with substrate ENLYFQM	area with substrate ENLYFQQ	area with substrate ENLYFQS	area with substrate ENLYFQV	area with substrate ENLYFQW	area with substrate ENLYFQH	area with substrate ENLYFQN	area with substrate ENLYFQY	area with substrate ENLYFQI	area with substrate ENLYFQL
Q97Y			0.0991		0.0384		0.0759		0.0488	
Q97G			0.109				0.0704			
N172M			0.0525							
N172L			0.0536							
N172A			0.0656				0.0697			
N172W			0.0793							
P9N		0.08	0.114				0.0746	0.0879		
Q227A			0.104							
W212A			0.0871			0.0771				0.0571
K7W			0.0994							
K7S			0.134	0.0389		0.0742				
Q118L			0.106						0.057	
N175S			0.0793	0.0308			0.0605			0.0545
N206P			0.114		0.0335		0.0656			0.0732
F38E			0.0653							
C131Q			0.107							
C131W			0.0905		0.06		0.0697			0.0411
C131P			0.111		0.0606	0.0796	0.0975	0.0534		0.066
C131E		0.056	0.115	0.052			0.0912			
C131F			0.139						0.0434	
C131H			0.158							0.0199
A170F			0.0565						0.0535	0.0398
R87D			0.0807				0.0715		0.048	0.0598
I164V			0.109		0.0871		0.0836			

Same assay, conditions: temperature: 34 °C; time window: 0-4 h after rhamnose induction

Variant	area with substrate ENLYFQP	area with substrate ENLYFQT	area with substrate ENLYFQR	area with substrate ENLYFQK
G153F	0.0309	0.0598		
P93K			0.0666	
K66Q	0.0395			
W199Y			0.0517	
W199S		0.0622	0.0527	0.0536
D91M		0.0744		
L99I	0.0742		0.0548	
N193C				0.0637
T119C				0.0583
I84N				0.0519
T174I	0.0644			
L5T	0.03		0.057	0.0919
P228Y	0.0641	0.0752	0.0692	
Q97T		0.0666		
N172A			0.0588	0.0648
P9N	0.0443	0.0689		
W212A		0.0589	0.0354	
K7W	0.0704			
Q118L				0.0868
N175S				0.0666
N206P		0.114		
C131W				0.0558
C131P		0.0687		
R87D		0.0693		
I164V			0.0613	
